Results published in PMC8163987.
Where two headings read alike, the source gives them in different places. Results are given in words; binding and its absence hold for the method and conditions named. Some results given as binding are weak or reduced against the parent protein; the word gives no strength.

Amino acid sequences for entries named in this document (tags omitted).
UniProt P06136: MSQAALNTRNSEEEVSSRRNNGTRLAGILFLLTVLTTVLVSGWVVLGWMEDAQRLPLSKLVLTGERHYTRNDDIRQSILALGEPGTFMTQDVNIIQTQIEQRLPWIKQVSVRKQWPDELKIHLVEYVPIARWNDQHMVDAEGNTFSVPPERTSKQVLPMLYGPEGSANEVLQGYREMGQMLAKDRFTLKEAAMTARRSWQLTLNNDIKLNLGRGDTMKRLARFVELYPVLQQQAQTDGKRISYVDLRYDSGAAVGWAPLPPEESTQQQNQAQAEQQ
UniProt P27434: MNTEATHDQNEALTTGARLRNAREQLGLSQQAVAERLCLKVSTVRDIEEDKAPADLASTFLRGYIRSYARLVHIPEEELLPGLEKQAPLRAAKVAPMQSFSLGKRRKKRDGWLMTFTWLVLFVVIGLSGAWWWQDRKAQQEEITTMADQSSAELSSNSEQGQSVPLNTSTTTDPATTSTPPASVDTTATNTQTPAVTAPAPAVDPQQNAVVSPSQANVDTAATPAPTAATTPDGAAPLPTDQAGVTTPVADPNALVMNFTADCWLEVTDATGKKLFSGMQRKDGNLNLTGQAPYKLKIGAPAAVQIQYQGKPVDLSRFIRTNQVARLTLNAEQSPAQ

T1: Escherichia coli YhcB (E. coli) (UniProt P0ADW3)
T1 sequence: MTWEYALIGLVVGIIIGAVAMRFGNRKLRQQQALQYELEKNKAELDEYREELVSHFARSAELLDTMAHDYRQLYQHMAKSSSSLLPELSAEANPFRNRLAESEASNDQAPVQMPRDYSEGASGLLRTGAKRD

T2: YhcB-v7 (cytoplasmic domain only, lacking the TM region) (E. coli) (UniProt P0ADW3)
T2 sequence: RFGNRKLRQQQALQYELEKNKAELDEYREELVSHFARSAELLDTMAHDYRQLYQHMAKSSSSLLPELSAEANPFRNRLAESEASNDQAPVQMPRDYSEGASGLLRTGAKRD


What was measured:
Experiment in all cases: two-hybrid
[1] = target: T1, Escherichia coli YhcB (E. coli)
[2] = target: T2, YhcB-v7 (cytoplasmic domain only, lacking the TM region) (E. coli)
[3] = target: T2, YhcB-v7 (cytoplasmic domain only, lacking the TM region) (E. coli); remark: listed apart in the source
[4] = target: T1, Escherichia coli YhcB (E. coli); remark: listed apart in the source

Row | binding [3] | binding [4] | Molecule | further results
1 |  |  | ZapE (Vibrio cholerae) (from UniProt Q9KUF3 1-367) | binding [1]: binds
2 |  |  | FtsQ (E. coli) (from UniProt P06136 1-276) | binding [1]: binds
3 |  |  | RodZ (E. coli) (from UniProt P27434 1-337) | binding [2]: no binding
4 | no binding |  | YciS (E. coli) (protein, UniProt P0ACV4 1-102) MKYLLIFLLVLAIFVISVTLGAQNDQQVTFNYLLAQGEYRISTLLAVLFAAGFAIGWLICGLFWLRVRVSLARAERKIKRLENQLSPATDVAVVPHSSAAKE | 
5 |  | no binding | Escherichia coli YhcB (protein, UniProt P0ADW3 1-132) MTWEYALIGLVVGIIIGAVAMRFGNRKLRQQQALQYELEKNKAELDEYREELVSHFARSAELLDTMAHDYRQLYQHMAKSSSSLLPELSAEANPFRNRLAESEASNDQAPVQMPRDYSEGASGLLRTGAKRD | 
6 | no binding | binds | FtsI (E. coli) (protein, UniProt P0AD68 1-588) MKAAAKTQKPKRQEEHANFISWRFALLCGCILLALAFLLGRVAWLQVISPDMLVKEGDMRSLRVQQVSTSRGMITDRSGRPLAVSVPVKAIWADPKEVHDAGGISVGDRWKALANALNIPLDQLSARINANPKGRFIYLARQVNPDMADYIKKLKLPGIHLREESRRYYPSGEVTAHLIGFTNVDSQGIEGVEKSFDKWLTGQPGERIVRKDRYGRVIEDISSTDSQAAHNLALSIDERLQALVYRELNNAVAFNKAESGSAVLVDVNTGEVLAMANSPSYNPNNLSGTPKEAMRNRTITDVFEPGSTVKPMVVMTALQRGVVRENSVLNTIPYRINGHEIKDVARYSELTLTGVLQKSSNVGVSKLALAMPSSALVDTYSRFGLGKATNLGLVGERSGLYPQKQRWSDIERATFSFGYGLMVTPLQLARVYATIGSYGIYRPLSITKVDPPVPGERVFPESIVRTVVHMMESVALPGGGGVKAAIKGYRIAIKTGTAKKVGPDGRYINKYIAYTAGVAPASQPRFALVVVINDPQAGKYYGGAVSAPVFGAIMGGVLRTMNIEPDALTTGDKNEFVINQGEGTGGRS | 
7 | no binding | binds | YidC (E. coli) (protein, UniProt P25714 1-548) MDSQRNLLVIALLFVSFMIWQAWEQDKNPQPQAQQTTQTTTTAAGSAADQGVPASGQGKLISVKTDVLDLTINTRGGDVEQALLPAYPKELNSTQPFQLLETSPQFIYQAQSGLTGRDGPDNPANGPRPLYNVEKDAYVLAEGQNELQVPMTYTDAAGNTFTKTFVLKRGDYAVNVNYNVQNAGEKPLEISSFGQLKQSITLPPHLDTGSSNFALHTFRGAAYSTPDEKYEKYKFDTIADNENLNISSKGGWVAMLQQYFATAWIPHNDGTNNFYTANLGNGIAAIGYKSQPVLVQPGQTGAMNSTLWVGPEIQDKMAAVAPHLDLTVDYGWLWFISQPLFKLLKWIHSFVGNWGFSIIIITFIVRGIMYPLTKAQYTSMAKMRMLQPKIQAMRERLGDDKQRISQEMMALYKAEKVNPLGGCFPLLIQMPIFLALYYMLMGSVELRQAPFALWIHDLSAQDPYYILPILMGVTMFFIQKMSPTTVTDPMQQKIMTFMPVIFTVFFLWFPSGLVLYYIVSNLVTIIQQQLIYRGLEKRGLHSREKKKS | 
8 |  | binds | RodA (E. coli) (protein, UniProt P0ABG7 1-370) MTDNPNKKTFWDKVHLDPTMLLILLALLVYSALVIWSASGQDIGMMERKIGQIAMGLVIMVVMAQIPPRVYEGWAPYLYIICIILLVAVDAFGAISKGAQRWLDLGIVRFQPSEIAKIAVPLMVARFINRDVCPPSLKNTGIALVLIFMPTLLVAAQPDLGTSILVALSGLFVLFLSGLSWRLIGVAVVLVAAFIPILWFFLMHDYQRQRVMMLLDPESDPLGAGYHIIQSKIAIGSGGLRGKGWLHGTQSQLEFLPERHTDFIFAVLAEELGLVGILILLALYILLIMRGLWIAARAQTTFGRVMAGGLMLILFVYVFVNIGMVSGILPVVGVPLPLVSYGGSALIVLMAGFGIVMSIHTHRKMLSKSV | 
